Laboratory results: ChEMBL document CHEMBL3875179

Experiments:
[1] = tested on: COc1cc2c(cc1OC)C(=O)/C(=C\c1ccc(N3CCN(CCCN(C)C)CC3)cc1)C2; assay: Mixed type inhibition of electric eel AChE using acetylthiocholine iodide as substrate assessed as Km for substrate at 9.790 uM preincubated for 15 mins followed by substrate addition and measured for 5 mins by Lineweaver-Burk plot analysis (reference value: […] uM); details: Electrophorus electricus
[2] = tested on: COc1cc2c(cc1OC)C(=O)/C(=C\c1ccc(N3CCN(CCCN(C)C)CC3)cc1)C2; assay: Mixed type inhibition of electric eel AChE using acetylthiocholine iodide as substrate assessed as enzyme Vmax at 9.790 uM preincubated for 15 mins followed by substrate addition and measured for 5 mins by Lineweaver-Burk plot analysis (reference value: […]/abs/min); details: Electrophorus electricus

In the case of “Acetylcholinesterase (Electrophorus electricus) (no sequence given)”, the Km [1] is reported as 3.07 µM and the Vmax [2] is reported as 0.16 /abs/min.
